Source: patent publication US20220220204A1 (NANJING GENSCRIPT BIOTECH, published 2022)

Biological target: T1, human LAG-3 (LAG-3 effector Jurkat T cells) (human, UniProt P18627 23-525)
T1 sequence (looked up): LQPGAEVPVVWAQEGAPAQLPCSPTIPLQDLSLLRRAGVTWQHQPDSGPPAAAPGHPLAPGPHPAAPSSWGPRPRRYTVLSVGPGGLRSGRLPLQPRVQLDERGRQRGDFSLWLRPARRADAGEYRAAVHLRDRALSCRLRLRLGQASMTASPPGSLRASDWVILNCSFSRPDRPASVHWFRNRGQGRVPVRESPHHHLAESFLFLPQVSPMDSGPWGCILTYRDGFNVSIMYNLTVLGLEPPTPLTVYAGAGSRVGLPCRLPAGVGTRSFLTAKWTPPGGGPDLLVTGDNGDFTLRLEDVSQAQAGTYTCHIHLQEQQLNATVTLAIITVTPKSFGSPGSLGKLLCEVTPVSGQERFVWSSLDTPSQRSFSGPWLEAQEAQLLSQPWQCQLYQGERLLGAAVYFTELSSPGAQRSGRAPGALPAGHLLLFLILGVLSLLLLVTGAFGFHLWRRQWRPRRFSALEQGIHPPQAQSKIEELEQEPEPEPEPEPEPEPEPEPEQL
Assay: cell-based or functional assay

Bottom (LAG-3 blockade bioassay): 343000 | Log EC50 (LAG-3 blockade bioassay): 1.23 | Top (LAG-3 blockade bioassay): 867000
B1: sdAb-LAG3-IgG4PE (Fc fusion)
chain: EVQLVESGGGLVQPGGSLRLSCAASGYTVSSYCMGWFRQAPGKGREGVSAIDSDGSVSYADSVKGRFTISKDNSKNTLYLQMNSLRAEDTAVYFCAADLCWVDQDQGEYNTWGQGTLVTVSS[letters of human IgG4 Fc with changes not shown]
